# From the supplement of paper PMC8728848
# The other results are listed elsewhere or left out.
# B1: CV-2L (Chromobacterium violaceum), Q7NX84 (protein)
# chain: MAQQGVFTLPARINFGVTVLVNSAATQHVEIFVDNEPRAAFSGVGTGDNNLGTKVINSGSGNVRVQITANGRQSDLVSSQLVLANKLNLAVVGSEDGTDMDYNDSIVILNWPLG
# How the values were obtained:
# Assay in all cases: glycan array binding signal (z-score within array); higher = stronger binding
# Details in all cases: glycan notation: IUPAC condensed, linker removed
# [1] = target: Fuc(a1-2)Gal
# How it was run: (§1)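 The binding signal is a Z-score computed within each array and averaged over linkers. Arrays of the same protein sequence at different concentrations or buffers were also averaged together. Data originate from 3228 arrays in the Consortium for Functional Glycomics database, kept only where the protein sequence was available.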
# [2] = target: Fuc(a1-2)Gal(b1-3)GalNAc
# How it was run: as §1
# [3] = target: Fuc(a1-2)Gal(b1-3)GalNAc(a1-3)[Fuc(a1-2)]Gal(b1-4)Glc
# How it was run: as §1
# [4] = target: Fuc(a1-2)Gal(b1-3)GalNAc(a1-3)[Fuc(a1-2)]Gal(b1-4)GlcNAc
# How it was run: as §1
# [5] = target: Fuc(a1-2)Gal(b1-3)GalNAc(b1-3)Gal
# How it was run: as §1
# [6] = target: Fuc(a1-2)Gal(b1-3)GalNAc(b1-3)Gal(a1-4)Gal(b1-4)Glc
# How it was run: as §1
# [7] = target: Fuc(a1-2)Gal(b1-3)GalNAc(b1-4)[Neu5Ac(a2-3)]Gal(b1-4)Glc
# How it was run: as §1
# [8] = target: Fuc(a1-2)Gal(b1-3)GlcNAc
# How it was run: as §1
# [9] = target: Fuc(a1-2)Gal(b1-3)GlcNAc(b1-2)Man(a1-3)[Fuc(a1-2)Gal(b1-3)GlcNAc(b1-2)Man(a1-6)]Man(b1-4)GlcNAc(b1-4)GlcNAc
# How it was run: as §1
# [10] = target: Fuc(a1-2)Gal(b1-3)GlcNAc(b1-2)Man(a1-3)[Fuc(a1-2)Gal(b1-3)GlcNAc(b1-2)Man(a1-6)]Man(b1-4)GlcNAc(b1-4)[Fuc(a1-6)]GlcNAc
# How it was run: as §1
# [11] = target: Fuc(a1-2)Gal(b1-3)GlcNAc(b1-3)Gal(b1-4)Glc
# How it was run: as §1
# [12] = target: Fuc(a1-2)Gal(b1-3)GlcNAc(b1-3)GalNAc
# How it was run: as §1
# [13] = target: Fuc(a1-2)Gal(b1-3)GlcNAc(b1-3)[Fuc(a1-3)[Gal(b1-4)]GlcNAc(b1-6)]Gal(b1-4)Glc
# How it was run: as §1
# [14] = target: Fuc(a1-2)Gal(b1-3)GlcNAc(b1-3)[Gal(b1-4)GlcNAc(b1-6)]Gal(b1-4)Glc
# How it was run: as §1
# [15] = target: Fuc(a1-2)Gal(b1-3)GlcNAc(b1-3)[Neu5Ac(a2-6)Gal(b1-4)GlcNAc(b1-6)]Gal(b1-4)Glc
# How it was run: as §1
# [16] = target: Fuc(a1-2)Gal(b1-3)[Fuc(a1-4)]GlcNAc
# How it was run: as §1
# [17] = target: Fuc(a1-2)Gal(b1-3)[Fuc(a1-4)]GlcNAc(b1-2)Man(a1-3)[Fuc(a1-2)Gal(b1-3)[Fuc(a1-4)]GlcNAc(b1-2)Man(a1-6)]Man(b1-4)GlcNAc(b1-4)GlcNAc
# How it was run: as §1
# [18] = target: Fuc(a1-2)Gal(b1-3)[Fuc(a1-4)]GlcNAc(b1-3)[Fuc(a1-3)[Gal(b1-4)]GlcNAc(b1-6)]Gal(b1-4)Glc
# How it was run: as §1
# [19] = target: Fuc(a1-2)Gal(b1-3)[Fuc(a1-4)]GlcNAc(b1-3)[Gal(b1-4)GlcNAc(b1-6)]Gal(b1-4)Glc
# How it was run: as §1
# [20] = target: Fuc(a1-2)Gal(b1-4)Glc
# How it was run: as §1
# [21] = target: Fuc(a1-2)Gal(b1-4)Glc6S
# How it was run: as §1
# [22] = target: Fuc(a1-2)Gal(b1-4)GlcNAc
# How it was run: as §1
# [23] = target: Fuc(a1-2)Gal(b1-4)GlcNAc(b1-2)Man(a1-3)[Fuc(a1-2)Gal(b1-4)GlcNAc(b1-2)Man(a1-6)]Man(b1-4)GlcNAc(b1-4)GlcNAc
# How it was run: as §1
# [24] = target: Fuc(a1-2)Gal(b1-4)GlcNAc(b1-2)Man(a1-3)[Fuc(a1-2)Gal(b1-4)GlcNAc(b1-2)Man(a1-6)]Man(b1-4)GlcNAc(b1-4)[Fuc(a1-6)]GlcNAc
# How it was run: as §1
# [25] = target: Fuc(a1-2)Gal(b1-4)GlcNAc(b1-2)[Fuc(a1-2)Gal(b1-4)GlcNAc(b1-4)]Man(a1-3)[Fuc(a1-2)Gal(b1-4)GlcNAc(b1-2)Man(a1-6)]Man(b1-4)GlcNAc(b1-4)GlcNAc
# How it was run: as §1
# [26] = target: Fuc(a1-2)Gal(b1-4)GlcNAc(b1-3)Gal(b1-4)GlcNAc
# How it was run: as §1
# [27] = target: Fuc(a1-2)Gal(b1-4)GlcNAc(b1-3)Gal(b1-4)GlcNAc(b1-3)Gal(b1-4)GlcNAc
# How it was run: as §1
# [28] = target: Fuc(a1-2)Gal(b1-4)GlcNAc(b1-3)GalNAc
# How it was run: as §1
# [29] = target: Fuc(a1-2)Gal(b1-4)GlcNAc(b1-3)[Fuc(a1-2)Gal(b1-4)GlcNAc(b1-6)]GalNAc
# How it was run: as §1
# [30] = target: Fuc(a1-2)Gal(b1-4)GlcNAc6S
# How it was run: as §1
# [31] = target: Fuc(a1-2)Gal(b1-4)[Fuc(a1-3)]GlcNAc
# How it was run: as §1
# [32] = target: Fuc(a1-2)Gal(b1-4)[Fuc(a1-3)]GlcNAc(b1-2)Man(a1-3)[Fuc(a1-2)Gal(b1-4)[Fuc(a1-3)]GlcNAc(b1-2)Man(a1-6)]Man(b1-4)GlcNAc(b1-4)GlcNAc
# How it was run: as §1
# [33] = target: Fuc(a1-2)Gal(b1-4)[Fuc(a1-3)]GlcNAc(b1-2)[Fuc(a1-2)Gal(b1-4)[Fuc(a1-3)]GlcNAc(b1-4)]Man(a1-3)[Fuc(a1-2)Gal(b1-4)[Fuc(a1-3)]GlcNAc(b1-2)Man(a1-6)]Man(b1-4)GlcNAc(b1-4)GlcNAc
# How it was run: as §1
# [34] = target: Fuc(a1-2)Gal(b1-4)[Fuc(a1-3)]GlcNAc(b1-3)Gal(b1-4)[Fuc(a1-3)]GlcNAc
# How it was run: as §1
# [35] = target: Fuc(a1-2)Gal(b1-4)[Fuc(a1-3)]GlcNAc(b1-3)Gal(b1-4)[Fuc(a1-3)]GlcNAc(b1-3)Gal(b1-4)[Fuc(a1-3)]GlcNAc
# How it was run: as §1
# [36] = target: Fuc(a1-2)Gal(b1-4)[Fuc(a1-3)]GlcNAc(b1-3)GalNAc
# How it was run: as §1
# [37] = target: Fuc(a1-2)Gal6S(b1-4)Glc
# How it was run: as §1
# [38] = target: Fuc(a1-2)Gal6S(b1-4)Glc6S
# How it was run: as §1
# [39] = target: Fuc(a1-2)Gal6S(b1-4)GlcNAc
# How it was run: as §1
# [40] = target: Fuc(a1-2)[Gal(a1-3)]Gal
# How it was run: as §1
# [41] = target: Fuc(a1-2)[Gal(a1-3)]Gal(b1-3)GalNAc
# How it was run: as §1
# [42] = target: Fuc(a1-2)[Gal(a1-3)]Gal(b1-3)GlcNAc
# How it was run: as §1
# [43] = target: Fuc(a1-2)[Gal(a1-3)]Gal(b1-3)GlcNAc(b1-2)Man(a1-3)[Fuc(a1-2)[Gal(a1-3)]Gal(b1-3)GlcNAc(b1-2)Man(a1-6)]Man(b1-4)GlcNAc(b1-4)GlcNAc
# How it was run: as §1
# [44] = target: Fuc(a1-2)[Gal(a1-3)]Gal(b1-3)GlcNAc(b1-2)Man(a1-3)[Fuc(a1-2)[Gal(a1-3)]Gal(b1-3)GlcNAc(b1-2)Man(a1-6)]Man(b1-4)GlcNAc(b1-4)[Fuc(a1-6)]GlcNAc
# How it was run: as §1
# [45] = target: Fuc(a1-2)[Gal(a1-3)]Gal(b1-3)GlcNAc(b1-3)GalNAc
# How it was run: as §1
binder,measurement,setting,value
B1,glycan array binding signal (z-score),[1],3.99
same,glycan array binding signal (z-score),[2],0.156
same,glycan array binding signal (z-score),[3],1.07
same,glycan array binding signal (z-score),[4],0.322
same,glycan array binding signal (z-score),[5],-0.03
same,glycan array binding signal (z-score),[6],2.56
same,glycan array binding signal (z-score),[7],0.162
same,glycan array binding signal (z-score),[8],2.22
same,glycan array binding signal (z-score),[9],4.01
same,glycan array binding signal (z-score),[10],0.729
same,glycan array binding signal (z-score),[11],2.45
same,glycan array binding signal (z-score),[12],1.9
same,glycan array binding signal (z-score),[13],1.36
same,glycan array binding signal (z-score),[14],2.83
same,glycan array binding signal (z-score),[15],2.61
same,glycan array binding signal (z-score),[16],0.884
same,glycan array binding signal (z-score),[17],-0.198
same,glycan array binding signal (z-score),[18],0.473
same,glycan array binding signal (z-score),[19],0.422
same,glycan array binding signal (z-score),[20],3.31
same,glycan array binding signal (z-score),[21],4.43
same,glycan array binding signal (z-score),[22],5.39
same,glycan array binding signal (z-score),[23],5.17
same,glycan array binding signal (z-score),[24],1.05
same,glycan array binding signal (z-score),[25],1.84
same,glycan array binding signal (z-score),[26],5.68
same,glycan array binding signal (z-score),[27],5.57
same,glycan array binding signal (z-score),[28],0.745
same,glycan array binding signal (z-score),[29],5.71
same,glycan array binding signal (z-score),[30],5.42
same,glycan array binding signal (z-score),[31],0.928
same,glycan array binding signal (z-score),[32],-0.31
same,glycan array binding signal (z-score),[33],-0.097
same,glycan array binding signal (z-score),[34],1.15
same,glycan array binding signal (z-score),[35],1.04
same,glycan array binding signal (z-score),[36],-0.3
same,glycan array binding signal (z-score),[37],3
same,glycan array binding signal (z-score),[38],4.37
same,glycan array binding signal (z-score),[39],3.31
same,glycan array binding signal (z-score),[40],-0.256
same,glycan array binding signal (z-score),[41],-0.335
same,glycan array binding signal (z-score),[42],-0.322
same,glycan array binding signal (z-score),[43],-0.292
same,glycan array binding signal (z-score),[44],-0.09
same,glycan array binding signal (z-score),[45],-0.351
